Laboratory results taken from ChEMBL document CHEMBL4888484, “Replenishing the malaria drug discovery pipeline: Screening and hit evaluation of the MMV Hit Generation Library 1 (HGL1) against asexual blood stage Plasmodium falciparum ,using a nano luciferase reporter read-out” (2022).
Screen size: about 150,000 compounds; about 540 (0.36%) showed an effect of 50% or more. The list shows a part of the results.

test system: Plasmodium falciparum; assay: Primary screen in NF54 nanoGlo assay, in single point, at 2uM, 72h; a lower Z score goes with more inhibition; type: functional, Erythrocyte; conditions: timepoint 72 hour

Structure (SMILES) | % Inhibition | Z score
CC(C)(C)OC(=O)N1CCC2(CC(O)c3ccc(OCCc4ccccc4)cc3O2)C1 (stereo not drawn) | -6% | 0.79
CC[C@H]1COCCN1C(=O)NCCCCn1ccnc1C | -11% | 1.68
c1cc(N[C@H]2CCCc3cn[nH]c32)nc(C2CC2)n1 | -7% | 0.67
Cn1c(C(F)(F)F)nn(C2CCN(C(=O)NCCOc3ccccc3)CC2)c1=O | -6% | 0.89
Cc1ccccc1NC(=O)N1CCN(C2=Nc3ccccc3Oc3ccccc32)CC1 | 4% | -0.48
CN(C(=O)C1CC2CCCC(C1)C2=O)C1CCCCCC1 (stereo not drawn) | -5% | 0.67
CO[C@@](C)(C(=O)N1CC(N2CCN(C)CC2)C1)c1ccccc1F | 14% | -1.78
O=C(c1[nH]nc2c1CCC2)N1CC=C(c2ccccc2)CC1 | 3% | -0.43
N#Cc1ccc(OCC(N)=O)c(Cl)c1 | -3% | 0.51
C[C@H](NC(=O)COc1ccc(F)c(C(F)(F)F)c1)C(=O)N(C)C | -9% | 0.97
COc1ccc([C@H](C#N)c2nc3ccccc3nc2N2CCN(c3ccc(F)cc3)CC2)cc1 | -13% | 1.35
CCCc1nnc(NC(=O)NC(C)[C@@H]2C[C@H](C(=O)O)C2(C)C)s1 (stereo partly drawn) | 4% | -0.53
Cc1ccccc1NC(=O)Nc1ccc(-n2nc(OCC(C)C)nc2-c2ccc3c(c2)OCO3)cc1 | -10% | 0.89
Cc1cnc(N2CCCn3nc(CNC(=O)N(C)C)cc3C2)nc1N(C)C | 2% | -0.44
COC[C@](C)(NC(=O)CN(C)C)c1ccccc1 | -11% | 1.45
O=C(Cc1csc(N2CCCNC2=O)n1)NC1CCCC1OCc1ccccc1 (stereo not drawn) | -15% | 2.31
CN(CC1CCCCC1)C(=O)[C@@H]1COC(=O)N1 | -5% | 0.61
CC(C)[C@H]1CN(Cc2c[nH]nc2-c2ccc(Cl)cc2)C[C@@H]1N(C)C | -5% | 0.81
CC(C)c1cc([C@@H]2CCCN2Cc2cccc(F)c2)no1 | -10% | 1.4
COc1ccc(C(=O)Nc2ccc(CCc3nc4ccccc4[nH]3)cc2)c(OC)c1 | 10% | -1.01
Cc1cccnc1C[C@H](C)n1cnc2c(C)cccc2c1=O | 6% | -1.08

Structure (SMILES) | % Inhibition | Z score
COc1cccc(NC(=O)CN2CCC3(CC2)NC(c2ccc(OC(F)(F)F)cc2)=NO3)c1 | -9% | 1.27
COc1cc(C)ccc1CN1CCCNC(=O)C1 | -16% | 2.07
c1ccc2c[n+](Cc3ccc4ccccc4n3)ccc2c1 | 59% | -7.39
CCOc1cccc2c1N(C(=O)COc1ccccc1)C(C)(C)c1ssc(=S)c1-2 | -2% | 0.29
CN(C)CCc1ccc(NC(=O)c2cc(F)c(F)c(O)c2F)cc1 | -5% | 0.92
CO[C@@]12CC[C@@H](NC(=O)C3CCC3)C[C@@H]1N(C(=O)c1cnc(N)nc1C)CC2 | -1% | 0.13
CCn1ncnc1[C@@H](NC(=O)Cn1nc(C)cc1N)C1CC1 | -16% | 3.15
CC1CN(C(=O)OC(C)(C)C)C(C)CN1 (stereo not drawn) | -10% | 1.08
O=C(O)c1ccc(N2CCC(CCN3CCCCC3)CC2)c(NC(=O)c2ccc(Cl)cc2)c1 | 11% | -1.66
CC(Cc1ccco1)NC(=O)C(C)n1cncn1 (stereo not drawn) | -13% | 1.71
O=C(Cc1coc(-c2cccs2)n1)N1CCC[C@H]1C1CCC1 | -9% | 1.35
Cn1cc(-c2c(Cl)n(C)c(=O)n(C)c2=O)c(=O)n(C)c1=O | 1% | -0.13
CCn1c(C(=O)OC)c(NC(C)=O)c2cc(NC3CCCCC3)cnc21 | 7% | -0.94
CCN(C(=O)c1ccncc1)C1CCCCC1 | -12% | 1.34
C[C@H](NCC(=O)NC1CCCCCCC1)c1ccccc1 | -13% | 2.46
CCc1nnc(NC(=O)COCC(F)(F)F)s1 | 1% | -0.18
CCCCS(=O)(=O)N[C@@H](CC)Cn1ccnc1 | -18% | 1.78
Cc1ncc(C)c(NC(=O)c2ccoc2C2CC2)n1 | 5% | -0.57
O=C(c1ccc(F)cc1)c1ccccc1C(=O)N1CCc2[nH]c3ccc(F)cc3c2C1 | -3% | 0.67
Cc1ccc(C(=O)N(C)C2CCCCC2)c(C2CCN(C(=O)c3ccc(F)cc3F)CC2)n1 | 0% | 0.01
COc1ccc(NCc2ccc(N3N=C(c4ccccc4)C(C)(C)[C@H]3c3ccccc3)cc2)cc1 | -3% | 0.41

Structure (SMILES) | % Inhibition | Z score
Cc1ccc(N2C[C@@H](C(=O)N3CCN(C)CC3)CC2=O)cc1 | -8% | 1.11
CCn1cncc1S(=O)(=O)N(C)c1cccc(C(C)C)c1 | -6% | 0.69
CC1CCC(CC(=O)N2CC[C@]3(CCN(C)C3)C2)CC1 (stereo partly drawn) | -2% | 0.27
O=S(=O)(Nc1ccc(O)c2cccnc12)N1CCCC1 | 46% | -3.88
CC(C)OCCC(=O)N(C)C[C@@H]1C[C@H](F)CN1c1ccncn1 | 1% | -0.09
CNc1ncccc1CN1C[C@H](OC(C)C)[C@@H](O)C1 | -5% | 0.52
O=c1cc([C@H]2C[C@H](Nc3nc4ccccc4o3)C2)nc(C2CC2)[nH]1 | -12% | 1.46
O=C(C1C2CCC(C2)N1C(=O)NC1CCCCC1)N1CCOCC1 (stereo not drawn) | -8% | 1.3
N[C@H]1CCC[C@@H](c2ncnn2CCc2ccccc2)C1 | -8% | 1.18
C/C1=C\CCC2C(/C=C(\C)CC1)OC(=O)C2CN1CCCCC1 (stereo not drawn) | 6% | -0.78
CN(C(=O)NCCc1cc(Cl)cc(Cl)c1)C1CCCCC1 | -12% | 1.73
Cn1nccc1C1CC(NC(=O)NC2CC3CC3C2)CCO1 (stereo not drawn) | 8% | -0.82
CC1CCN(C(=O)c2ccccc2N2CCC(NC(=O)c3ccco3)CC2)CC1 | -2% | 0.42
O=C(NCc1cccc(F)c1)N1CC2CC1CS2(=O)=O (stereo not drawn) | -5% | 1.04
O=C(Cc1c[nH]c2ccccc12)N1CCN(C(=O)NC2CCCC2)CC1 | -29% | 3.38
CC(C)c1ocnc1C(=O)NS(=O)(=O)CC1CCOCC1 | -3% | 0.38
Cc1nn(C)cc1C1=NO[C@H]2C(=O)N(c3ccc(Cl)cc3)C(=O)[C@@H]12 | -5% | 0.7
COc1cccc(CNC(=O)CCNC(=O)Cn2ccc3ccccc3c2=O)c1 | -4% | 0.52
Cc1nc2nc(CN3CCC(CNC(=O)[C@H]4CCCO4)CC3)cc(O)n2n1 | -22% | 2.76
CN(C)c1ccc(C(=O)N[C@H]2CO[C@H]3[C@@H]2OC[C@@H]3n2nnnc2Oc2ccc3c(c2)OCO3)cc1 | -11% | 1.35
CO[C@H]1C[C@@H](Cn2nnnc2N2CCC[C@H]2c2ccsc2)C1 | -3% | 0.42

Structure (SMILES) | % Inhibition | Z score
Cc1cc(C(=O)N(CCC(=O)NCCc2ccccc2)CC(C)C)c(C)o1 | -13% | 1.85
O=C1C(CC(=O)N2CCCC[C@H]2c2cccnc2)N=C(O)N1CCc1ccccc1 (stereo partly drawn) | -4% | 0.53
c1ccc(Cc2noc(CN3CCOC4CCCCC43)n2)cc1 (stereo not drawn) | -6% | 0.81
Cc1noc(CCCN2C(=O)c3ccccc3C2=O)n1 | -6% | 0.75
Cc1ccc(N(C)C(=O)c2c3c(nn2C)CCS(=O)(=O)C3)c(C)c1 | -11% | 1.72
COC(=O)c1sc(NC(=O)c2cc(-c3ccc(C)c(F)c3)on2)nc1C | -10% | 1.89
CN(C)c1ccccc1CNS(=O)(=O)CCC1CCOCC1 | -10% | 0.82
O=c1[nH]n(C2CCOCC2)c2c1[C@@H](c1cccc(OC(F)F)c1)CC(O)=N2 | 35% | -3.95
COCCNC(N)=NCc1cccc(C(C)C)c1 | -6% | 0.81
Cc1ccc(N(C)C(C)C)c(C(=O)O)c1 | 9% | -1.8
COc1cccc([C@H]2CC(=O)Nc3ccsc32)c1OCc1cccc(F)c1 | 9% | -1.15
CCC(CC)N(CCNC(=O)C1CC2C=CC1C2)C(=O)C1CC2C=CC1C2 (stereo not drawn) | 2% | -0.31
CCOc1ccc([C@@H]2CC(c3ccc(C)cc3)=NN2C(=O)CN2CCN(Cc3ccccc3)CC2)cc1 | 28% | -3.59
CCCN(Cc1cnn(C)c1)S(=O)(=O)Cc1cccc(OC)c1 | -8% | 1.07
COc1ccccc1CNC(=O)c1cc(C)nc2c(-c3ccc(C)cc3)cccc12 | 12% | -1.38
COCCn1ccc(-c2cccc(-c3nc(C)cnc3C)c2)n1 | 9% | -1.62
CCc1nc2c(c(NCc3ccc(OC)c(F)c3F)n1)CCNCC2 | -6% | 1.04
CCCn1nnc(NC(=O)C(C)(C)C)n1 | -15% | 1.89
Cc1cc(C(=O)COc2cccc(Cl)c2Cl)c(C)n1Cc1ccc2c(c1)OCO2 | -20% | 2.03
CC[C@H]1c2cccn2CCN1C(=O)c1cnn(Cc2ccccc2)c1 | -13% | 1.51
CCN(Cc1noc(C)n1)C(=O)NCC1(N2CCCCC2)CCCC1 | -20% | 1.79
